# Test results taken from PubChem BioAssay (NCATS).
# Where “and” joins values, the source holds several entries; their conditions need not be identical. Equal values may be shown once. The shares of active, inactive and inconclusive entries below differ from those in the screen. A potency beside an inconclusive call is a rough fit, not a confirmed value. Calls of active or inactive are those of the source. Calls follow the shape of the dose curve; as a rule, active = well fitted inhibition curve with a large enough effect; inconclusive = small, poorly fitted or top-dose-only effect; inactive = flat fitted curve, though single readings scatter.
# Experiment: qHTS for Inhibitors of Plasmodium falciparum (HB3) proliferation (AID 504318); also: nearly all actives have a fitted effect of over 60% in size;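 as to activity change, negative = inhibition: 0% = DMSO vehicle and -100% = artemisinin control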
# Details: P. falciparum HB3 in erythrocytes, SYBR Green DNA, 72 h; activity change, negative = inhibition: at 7.21 µM (top of the series)
# Text: Plasmodium falciparum is a virulent malarial parasite that kills 1-2 million people worldwide each year. Malaria not only inflicts tremendous suffering and morbidity on the human population, but has dramatically influenced the course of civilization with profound sociological and economic implications (Shah, S. 2010). Transmitted by mosquitoes, the sporozoite form of the parasite enters the blood stream to infect hepatocytes, where they become merozoites that infect red blood cells (erythrocytes). Within erythrocytes, merozoites begin a […] cycle of growth and division, after which the parasite is released to infect new red blood cells. Gametocytes, which form within erythrocytes as well, circulate in the bloodstream and are ingested by the mosquito, thereby completing the life cycle (see CDC website). To profile malarial lines for differential chemical responses and to identify inhibitors of malarial growth, an assay that measures P. falciparum growth and replication within erythrocytes was employed. This assay uses a DNA binding fluorescent dye (SYBR Green) to detect parasite DNA following cell lysis. Because mature erythrocytes lack DNA, only Plasmodium-derived DNA is detected. The P. falciparum line cp250, derived from a malarial isolate from Cambodia, (Mu, J., et al. 2010) was added to the panel of lines, Dd2, HB3, 7G8 and GB4 in this study. Laboratory of Assay Development and Screening Technology [ADST] and NIH Chemical Genomics Center [NCGC] Boston University, Chemistry Department, Center for Chemical Methodology and Library Development [CMLD-BU] NIH National Institute of Allergy and Infectious Diseases [NIAID]
# ADST Assay Protocol Summary: The 1536-well SYBR Green viability assay was based on the method of Bennett et al (2004) and described previously in 1536-well format (Yuan J., et al. 2009). For screening 3 ul culture medium was dispensed into 1536 well black clear bottom plates (Aurora Biotechnologies) using a Multidrop Combi (Thermo Fisher Scientific Inc.), 23 nL compounds in DMSO were added by a pin transfer (Cleveland, P.H. and Koutz, P.J, 2005) using a pin tool-based delivery system (Kalypsys), and 5 ul of erythrocytes infected with P. falciparum one of five lines (cp250, Dd2, HB3, 7G8 or GB4, 0.3% parasitemia, 2.5% hematocrit final concentration) were added. The plates were incubated at 37C in a humidified incubator in 5% CO2 for 72 h, and 2 ul lysis buffer (20 mM Tris HCl, 10 mM EDTA, 0.16% saponin, 1.6% triton X, 10X SYBR Green I (supplied as 10,000X final concentration by Invitrogen) was added to each well. The plates were mixed for 25 sec with gentle shaking and incubated overnight at room temperature in the dark. The following morning, fluorescence intensity at 485(14) nm excitation and 535(25) nm emission wavelengths was measured on an EnVision (Perkin Elmer) plate reader. Plate reads were normalized relative to the control inhibitor (0.29 uM artemisinin) and vehicle (DMSO) wells present on each plate and then corrected by an algorithm using vehicle-only control plates at the beginning and end of the compound plate stack. References Shah, S. (2010). The Fever: how malaria has ruled humankind for 500,000 years. New York, Sarah Crichton Books. CDC web site, http://www.cdc.gov/malaria/about/biology/index.html Mu, J., Myers, R.A., Jiang, H., Liu, S., Ricklefs, S., Waisberg, M., Chotivanich, K., Wilairatana, P., Krudsood, S., White, N.J., et Plasmodium falciparum genome-wide scans for positive selection, recombination hot spots and resistance to antimalarial drugs Nature Genetics 2010, 42, pp 268-271 Bennett TN, Paguio, M., Gligorijevic, B., Seudieu, C., Kosar, A. D., Davidson, E., and Roepe, P. D. Novel, rapid, and inexpensive cell-based quantification of antimalarial drug efficacy Antimicrobial Agents Chemother. 2004, 48(5): pp 1807-10 Yuan J, Johnson RL, Huang RL, Wichterman J, Jiang HY, Hayton K, Fidock DA, Wellems TE, Inglese J, Austin CP, Su XZ. […]
# Potency is read from the fitted curve at half-maximal effect; tags tell the direction and shape of the fitted curve.
Compound,Potency,"activity change, negative = inhibition"
COC(=O)c1ccc(CN2C(=O)[C@]3(O[C@H](C)CC4=CCCC43)c3c(Br)cccc32)cc1 (stereo not given in full),"inconclusive: 1.35 µM [inhibitor, partial curve, poor fit]",
COC(=O)[C@H]1C[C@@]2(CC=C(C)C)C(=O)[C@@](CC=C(C)C)(C(=O)C(C(=O)c3ccccc3)=C2OC)C1(C)C,"inconclusive: 4.26 µM [inhibitor, partial curve, poor fit]",
COC(=O)N[C@@H](CCc1ccccc1)[C@]1(C(C)=O)CCCC1=O,,inactive: 13.5%
COC(=O)[C@H]1[C@H](CCc2ccccc2)NC(=O)N(Cc2ccccc2)[C@@H]1C,,inactive: -7.09%
C=C(CC(=O)OC)C[C@]1(CC(=O)OC)CC2(CC=C(C)C)C(=O)C(C(=O)c3ccccc3)=C(OC(=O)c3ccc(Br)cc3)C(CC=C(C)C)(C1)C2=O (stereo not given in full),,inactive: 1.36%
Cc1c(O)ccc2c1OCO2,,inactive: 9.07%
CC1=CC[C@@H](COc2ccccc2)O[C@@]2(C1)C(=O)N(Cc1ccc(F)cc1)c1cccc(Br)c12,"inconclusive: 1.69 µM [inhibitor, single point]",
COC1=CC2C(=O)C(C1=O)[C@H](c1ccccc1)[C@H]2C (stereo not given in full),"inconclusive: 0.0054 µM [activator, full curve, poor fit]",
CCCC[C@]12Cc3c(ccc4ccccc34)[C@H](O1)c1c(cc(C)oc1=O)O2,,inactive: -1.08%
COc1ccc2c(c1)[C@@]1(OCCC=C[C@@H]1C)C(=O)N2Cc1ccccc1C(F)(F)F,"inconclusive: 0.107 µM [inhibitor, full curve, poor fit]",
C=CC1=C2C=C(C3CC3)N(C3CCCCC3)C=C2C(=O)C(C)(OC(=O)c2ccco2)C1=O (stereo not given),"inconclusive: 3.38 µM [inhibitor, single point] and inconclusive: 2.13 µM [inhibitor, single point]",
CCN1C(=O)N(C)[C@@H](c2ccccc2)C(C(=O)OC)=C1C,"inconclusive: 1.51 µM [inhibitor, partial curve, poor fit]",
COC(=O)C1=C(C(=O)OC)[C@@H]2N(C)c3ccc(OC)cc3[C@@]23C[C@@H](C(=O)OC)N(C(=O)c2cccs2)C3=N1,"inconclusive: 14.7 nM [inhibitor, full curve] and inactive",
CCCNC(=O)OC[C@H]1O[C@H](CCON=Cc2ccc(C(=O)N3[C@H](C(=O)OC)CC[C@H](C)[C@@H]3c3ccc(C)cc3)cc2)C=C[C@H]1Oc1ccc(OC)cc1,"inconclusive: 1.69 µM [inhibitor, single point]",
COC(=O)C1=C(C(=O)OC)[C@@H]2N(C)c3ccc(OC)cc3[C@@]23C[C@@H](C(=O)OC)N(C(=O)c2cc(C)oc2C)C3=N1,"inconclusive: 4.26 µM [inhibitor, single point] and inactive",
COC(=O)[C@H](Cc1ccccc1)NC(=O)O[C@@H]1C(=O)c2cc(OC)ccc2O[C@H]1c1ccc(OC)c(Br)c1,,inactive: -5.57%
CCCNC(=O)CC1OC(C2CCCCC2)Cc2ccccc21 (stereo not given),"inconclusive: 0.0038 µM [activator, full curve, poor fit]",
CC1(OC(=O)CCc2ccccc2)C(=O)C=C2C=C(c3ccc(C#N)cc3)N(Cc3ccco3)C=C2C1=O (stereo not given),"inconclusive: 4.78 µM [inhibitor, single point]",
CC(CCN1CCCc2nc(C)c(C)cc21)=NO[C@@H](C)c1cc(-c2c(C)cc(C)cc2C)no1,"inconclusive: 4.26 µM [inhibitor, single point]",
COC(=O)c1ccccc1S(=O)(=O)N1CCc2nc(COc3ccccc3)c3c(c2C1)CO[C@@H](C)C3,,inconclusive: -17.1% [inhibitor]

Compound,Potency,"activity change, negative = inhibition"
C=CCN1C=C2C(=O)C(C)(OC(=O)CCc3ccccc3)C(=O)C=C2C=C1c1ccc(C#N)cc1 (stereo not given),"inconclusive: 4.26 µM [inhibitor, single point]",
COC(=O)CCC(=O)N1C2=NC3=C(C(=O)N(Cc4ccc5c(c4)OCO5)C3=O)C3N(C)c4ccccc4[C@]23C[C@H]1CO (stereo not given in full),"inconclusive: 1.51 µM [inhibitor, partial curve]",
COC(=O)NC(c1ccccc1)c1c[nH]c2ccccc12 (stereo not given),"inconclusive: 1.9 µM [inhibitor, single point]",
C[C@@H](c1ccccc1)N1C(=O)[C@@H]2[C@H]3[C@H](O)[C@H](O)CC(=NOC[C@@H](O)COCc4ccco4)[C@H]3CC[C@H]2C1=O,"inconclusive: 2.33 µM [inhibitor, single point]",
COC(=O)C12C[C@@H](C)C3C(C)C(c4ccccc4C31)N2C(=O)C(F)(F)F (stereo not given in full),"inconclusive: 3.01 µM [inhibitor, single point]",
CCCCc1nc2c(c3c1C[C@H](C)OC3)CN(S(=O)(=O)c1ccc(NC(C)=O)cc1)CC2,inactive,
COC(=O)C1=C(C(=O)OC)[C@@H]2N(C)c3ccccc3[C@@]23C[C@@H](C(=O)OC)N(S(=O)(=O)c2ccc(OC)cc2)C3=N1,"inconclusive: 4.78 µM [inhibitor, single point]",
C=CCN1c2ccccc2[C@]23CCC(=O)N(Cc4ccco4)C2=NC(C(=O)OC)=C(C(=O)OC)[C@H]13,,inactive: -3.85%
CC(C)=CCCC(C)=CCN1C(=O)[C@@]2(C[C@@H](C)C[C@@H](C)O2)c2ccccc21,"inconclusive: 0.849 µM [inhibitor, partial curve, poor fit]",
CC(=O)OC[C@H]1O[C@H](C#Cc2ccc(F)cc2F)C=C[C@H]1OC(C)=O,,inactive: -3.11%
C[C@H]1CC[C@H]2C(=O)N(Cc3ccc(Cl)cc3)C[C@@H](O)CN2[C@H]1c1ccc(Br)cc1,"inconclusive: 1.69 µM [inhibitor, single point]",
COC(=O)C1=C(C(=O)OC)[C@@H]2N(Cc3ccccc3)c3ccccc3[C@@]23C[C@@H](C(=O)OC)N(S(=O)(=O)c2cccs2)C3=N1,"inconclusive: 2.13 µM [inhibitor, partial curve]",
C=C(C(C)=O)C(O)c1cccc(OC)c1 (stereo not given),,inactive: -3.59%
COC(=O)C1=C[C@@]2(c3ccc(OC)cc3[C@@H](OC)[C@@H]2C)[C@@H]2C=C[C@@H]1C2,"inconclusive: 4.26 µM [inhibitor, single point]",
COC(=O)CCCC1=CC2=CC(=O)C(C)(OC(=O)c3cccs3)C(=O)C2=CN1C(CO)CO (stereo not given),,inactive: 5.13%
COC(=O)C1=C(C(=O)OC)[C@@H]2N(Cc3ccccc3)c3ccccc3[C@@]23CCC(=O)N(CCc2ccccn2)C3=N1,"inconclusive: 1.69 µM [inhibitor, partial curve]",
CCCCn1c(C)cc2c(c1=O)[C@H]1O[C@](c3ccsc3)(Cc3cc(OC)c(OC)cc31)O2,"inactive and inconclusive: 4.26 µM [inhibitor, single point]",
COC(=O)C1=C(C(=O)OC)[C@@H]2N(C)c3ccccc3[C@@]23C[C@@H](CO)N=C3N1,,inactive: 5.03%
COC/C=C/C1=CC2=CC(=O)C(C)(OC(=O)c3cnc4ccccc4n3)C(=O)C2=CN1CCCCO (stereo not given),"inconclusive: 0.601 µM [inhibitor, single point]",
COC(=O)CC=C1c2ccccc2OC[C@@H](OC)[C@H]1C,,inactive: -7.37%
